# Results are given in words; binding and its absence hold for the method and conditions named. Binding seen in cells or lysates may run through a third protein. Some entries that bind do so weakly or less than the wild type. For some of these results: Where a sequence is shown, tags or fusion partners need not be part of it.
# Protein sequences, listed by entry. Tags and fused reporters are not part of them.
# UniProt Q969H0: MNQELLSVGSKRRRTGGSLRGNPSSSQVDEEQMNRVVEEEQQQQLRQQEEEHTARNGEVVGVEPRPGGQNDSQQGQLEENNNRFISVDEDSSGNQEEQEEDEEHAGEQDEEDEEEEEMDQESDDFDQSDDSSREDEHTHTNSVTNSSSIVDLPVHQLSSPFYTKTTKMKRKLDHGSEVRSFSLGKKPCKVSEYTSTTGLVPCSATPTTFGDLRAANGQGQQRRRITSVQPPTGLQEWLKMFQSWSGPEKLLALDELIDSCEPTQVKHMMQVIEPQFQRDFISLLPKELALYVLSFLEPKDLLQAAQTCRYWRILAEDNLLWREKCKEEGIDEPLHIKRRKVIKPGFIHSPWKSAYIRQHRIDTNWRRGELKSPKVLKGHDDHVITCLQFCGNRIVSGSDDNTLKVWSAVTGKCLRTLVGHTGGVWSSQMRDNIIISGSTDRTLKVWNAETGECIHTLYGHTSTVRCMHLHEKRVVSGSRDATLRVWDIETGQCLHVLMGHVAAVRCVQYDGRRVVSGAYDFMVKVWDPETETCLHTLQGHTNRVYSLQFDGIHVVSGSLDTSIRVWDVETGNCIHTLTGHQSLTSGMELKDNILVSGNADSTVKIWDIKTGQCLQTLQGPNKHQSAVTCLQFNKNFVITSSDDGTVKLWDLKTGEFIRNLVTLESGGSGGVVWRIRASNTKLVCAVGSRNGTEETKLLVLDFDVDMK
# UniProt Q9QR71: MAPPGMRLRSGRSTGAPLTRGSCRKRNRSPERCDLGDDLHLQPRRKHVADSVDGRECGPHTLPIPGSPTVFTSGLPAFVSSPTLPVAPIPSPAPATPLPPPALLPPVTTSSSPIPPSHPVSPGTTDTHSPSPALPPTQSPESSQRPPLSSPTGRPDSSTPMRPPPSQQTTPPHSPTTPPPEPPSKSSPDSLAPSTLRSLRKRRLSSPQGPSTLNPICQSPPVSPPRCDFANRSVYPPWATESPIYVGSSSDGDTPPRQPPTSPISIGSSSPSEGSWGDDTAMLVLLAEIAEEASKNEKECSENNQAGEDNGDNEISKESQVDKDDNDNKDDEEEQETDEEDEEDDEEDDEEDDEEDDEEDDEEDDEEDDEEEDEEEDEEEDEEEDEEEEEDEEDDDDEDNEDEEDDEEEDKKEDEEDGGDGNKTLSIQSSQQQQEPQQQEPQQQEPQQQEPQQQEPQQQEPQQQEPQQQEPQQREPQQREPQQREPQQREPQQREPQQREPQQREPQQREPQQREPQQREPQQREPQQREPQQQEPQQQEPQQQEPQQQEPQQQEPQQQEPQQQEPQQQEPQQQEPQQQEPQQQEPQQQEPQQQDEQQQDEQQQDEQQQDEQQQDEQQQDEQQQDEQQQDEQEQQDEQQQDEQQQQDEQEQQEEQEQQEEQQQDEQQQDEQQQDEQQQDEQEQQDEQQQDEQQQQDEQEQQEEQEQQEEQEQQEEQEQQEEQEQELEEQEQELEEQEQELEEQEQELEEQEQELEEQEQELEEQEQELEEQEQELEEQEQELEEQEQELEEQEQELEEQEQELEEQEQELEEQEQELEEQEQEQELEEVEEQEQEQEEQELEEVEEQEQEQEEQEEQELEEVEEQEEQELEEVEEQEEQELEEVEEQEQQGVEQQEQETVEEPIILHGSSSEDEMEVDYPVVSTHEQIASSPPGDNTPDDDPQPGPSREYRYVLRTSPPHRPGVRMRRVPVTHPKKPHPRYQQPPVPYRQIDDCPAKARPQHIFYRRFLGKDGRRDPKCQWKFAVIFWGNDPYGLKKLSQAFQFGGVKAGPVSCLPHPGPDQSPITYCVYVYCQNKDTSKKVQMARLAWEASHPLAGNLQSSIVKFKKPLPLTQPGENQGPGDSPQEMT
# UniProt Q969U6: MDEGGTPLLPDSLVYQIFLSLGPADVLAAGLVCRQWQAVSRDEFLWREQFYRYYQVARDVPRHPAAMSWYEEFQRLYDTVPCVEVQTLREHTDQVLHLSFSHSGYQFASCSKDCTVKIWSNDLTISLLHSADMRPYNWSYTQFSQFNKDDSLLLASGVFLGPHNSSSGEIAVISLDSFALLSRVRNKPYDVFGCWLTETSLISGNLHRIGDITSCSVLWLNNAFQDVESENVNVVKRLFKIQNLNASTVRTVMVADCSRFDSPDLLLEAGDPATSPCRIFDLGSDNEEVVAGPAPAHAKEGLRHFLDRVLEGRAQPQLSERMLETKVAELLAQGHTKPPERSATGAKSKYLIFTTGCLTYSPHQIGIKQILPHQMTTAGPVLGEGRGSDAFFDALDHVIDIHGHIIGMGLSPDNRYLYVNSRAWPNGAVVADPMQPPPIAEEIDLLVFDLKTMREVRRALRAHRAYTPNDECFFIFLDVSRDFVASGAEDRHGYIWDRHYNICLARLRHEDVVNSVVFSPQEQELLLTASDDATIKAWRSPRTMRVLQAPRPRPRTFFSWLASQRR
# B1: FBW2, Flag-tagged (protein, UniProt Q9UKT8 1-454)
# chain: MERKDFETWLDNISVTFLSLTDLQKNETLDHLISLSGAVQLRHLSNNLETLLKRDFLKLLPLELSFYLLKWLDPQTLLTCCLVSKQWNKVISACTEVWQTACKNLGWQIDDSVQDALHWKKVYLKAILRMKQLEDHEAFETSSLIGHSARVYALYYKDGLLCTGSDDLSAKLWDVSTGQCVYGIQTHTCAAVKFDEQKLVTGSFDNTVACWEWSSGARTQHFRGHTGAVFSVDYNDELDILVSGSADFTVKVWALSAGTCLNTLTGHTEWVTKVVLQKCKVKSLLHSPGDYILLSADKYEIKIWPIGREINCKCLKTLSVSEDRSICLQPRLHFDGKYIVCSSALGLYQWDFASYDILRVIKTPEIANLALLGFGDIFALLFDNRYLYIMDLRTESLISRWPLPEYRKSKRGSSFLAGEASWLNGLDGHNDTGLVFATSMPDHSIHLVLWKEHG
# Assays:
# [1] = target: endogenous FBW7 (human (endogenous in BJAB and BCBL-1)) (UniProt Q969H0); test: co-IP
# [2] = target: endogenous FBW7 (human (endogenous in BJAB and BCBL-1)) (UniProt Q969H0); test: co-IP; BJAB and BCBL-1 cells treated with MG132 (10 μM); IP of endogenous FBW7 with anti-FBW7, IB anti-LANA or anti-MCL-1
# [3] = target: F-box and WD repeat domain-containing 7 (FBW7), Flag-tagged (human) (UniProt Q969H0); test: condition: only cell lysates treated with λ-phosphatase; co-IP; 293T cells co-transfected with Au/LANA and Flag/FBW7; cell lysates treated with phosphatase (λ-phosphatase) before IP anti-Flag, IB anti-Au
# [4] = target: F-box and WD repeat domain-containing 7 (FBW7), Flag-tagged (human) (UniProt Q969H0); test: co-IP; 293T cells co-transfected with Au/LANA (wild type or phosphorylation-dead mutants) and Flag/FBW7; IP anti-Flag, IB anti-Au (Fig 1B, 1D without phosphatase); antibodies of Fig 1E not named
# [5] = target: KSHV latency-associated nuclear antigen (LANA), V5-tagged, wild type (Kaposi's sarcoma-associated herpesvirus (KSHV)) (UniProt Q9QR71); test: co-IP; 293T cells co-transfected with LANA and Flag-tagged F-box/WD repeat constructs; IP anti-V5, IB anti-Flag
# [6] = target: F-box and WD repeat domain-containing 7 (FBW7), Flag-tagged (human) (UniProt Q969H0); test: co-IP; competitive protein-binding assay: 293T cells transfected with combinations of LANA-WT (rising levels), LANA-P1, MCL-1 and FBW7, treated with CHX (20 μg/ml); IP anti-Flag, IB anti-V5 or anti-GST
molecule,measurement,setting,value
"KSHV LANA, Au-tagged, in tetracycline-inducible TREx/BJAB cells (from UniProt Q9QR71 1-1129)",binding,[1],binds
endogenous KSHV LANA of BCBL-1 cells (from UniProt Q9QR71 1-1129),binding,[2],binds
"KSHV latency-associated nuclear antigen (LANA), Au-tagged, wild type (from UniProt Q9QR71 1-1129)",binding,[3],no binding
same,binding,[4],binds
"FBW5, Flag-tagged (from UniProt Q969U6 1-566)",binding,[5],no binding
"KSHV latency-associated nuclear antigen (LANA), V5-tagged, wild type (from UniProt Q9QR71 1-1129)",binding,[6],binds
B1,binding,[5],no binding

# From publication PMC7816990
